Test results: the supplement of paper PMC4466236
Whole data set: some 33,000 sequences, median “E-score (dimensionless, -0.5 to 0.5)” near -0.058, cut for the highest 2% near 0.35. The list shows a part of the results.

Tested on: MvaT
Assay: PBM 8-mer E-score (mean of HK and ME arrays) (E-score (dimensionless, -0.5 to 0.5)); higher = stronger relative binding preference; most listed sequences are background and not binding sites
Method in brief: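 Reported values are rank-based E-scores, taken as the mean of two universal arrays and parsed with a custom script. Each 8-mer score falls between -0.5 and 0.5. The arrays, ME and HK, were double-stranded 60-mers with a constant 25-mer primer region and a variable 35-mer region covering all 8-mers. They were probed, by an earlier protocol, with full-length P. aeruginosa MvaT carrying an N-terminal glutathione S-transferase fusion.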

Sequence | PBM 8-mer E-score
ATTGTACG | 0.164
GTCCAGTA | -0.138
GAAACTAA | 0.284
GCTATGAA | 0.0436
AAGGGCCA | -0.254
CGCGCAAA | 0.146
ACTCCTAA | 0.0405
ACTGCGTA | -0.128
ATAACATA | 0.359
CGCCCGAG | -0.184
CTGGGTAA | 0.119
TCCACTAA | 0.149
AGCGTCGA | -0.12
CAAACAGC | -0.0107
GGTTGGAC | -0.169
CGACGGTC | -0.222
AAGTGCTA | 0.0298
AGCTTTCA | -0.141
ACCCCGAT | 0.00518
AATGGCCA | -0.0193
GCTGCATA | -0.0612
GATCATGA | -0.0896

Sequence | PBM 8-mer E-score
CTCATCAC | -0.181
TGGCTACA | -0.143
CAAACAAA | 0.0286
AAGGGAGA | -0.206
CACCTTGC | -0.0983
CACTACCG | -0.101
CCGGCTGA | -0.25
GGGGCGTA | -0.169
CCAGCTCA | -0.0499
ACTTTGTC | 0.0551
ACCATTCA | 0.0275
ACAGCCGC | -0.211
CAACGCGG | -0.167
ATTGACCG | -0.00731
CCCAGATA | -0.0766
ATCTTATA | 0.238
ACAAGCCG | -0.202
GAACACGA | -0.0165
GGTTCAAC | -0.0691
AAGATAGT | 0.197
TCGACACA | -0.176
ATAGAGTA | 0.152

Sequence | PBM 8-mer E-score
GGTGCGAA | -0.0873
CACTACTG | 0.065
AATAACAA | 0.38
GAAGGCCA | -0.3
CCAAGCCA | -0.218
AAGAAAAG | 0.114
TCGTACAA | 0.0784
TTGCCAAA | 0.161
AACCCTGA | -0.198
TACAAACA | 0.323
CATGCCTA | -0.0489
CCCTCGCC | -0.307
ATCGATTG | 0.0285
AACGCCAG | -0.15
GCAAGGGC | -0.247
CCGGCACC | -0.273
CTTATGCC | 0.00469
CACGCGCG | -0.19
GTGGCAGA | -0.129
ATGTGCCG | 0.0768
ACAAGAAG | 0.0103
ATAAGAGG | 0.0378

Sequence | PBM 8-mer E-score
CATCCCGG | -0.136
ACCTGTAG | -0.13
GAACATGA | 0.0574
CCGCTTAC | -0.0199
CGAAATTA | 0.24
CGAATACC | -0.0335
AGATCCAA | 0.00475
TCGCGCGA | 0.0286
AGAACTAG | 0.0971
ATTGATCC | 0.0745
TAACGTTA | 0.333
CGCAGAAG | -0.195
ATACCGGA | -0.141
AGGCCGGG | -0.346
AGATCTCC | -0.204
GGGTCGAA | -0.0508
CAAGTGCG | -0.061
ATGTGACA | 0.179
CGTAGGTA | -0.029
CCCAATCA | -0.106
